This is an account of results in the supplement of paper PMC11876631.

± gives the standard deviation of the averaged measurements. Laboratory Escherichia coli strains with one amino-acid change in an essential protein, pooled on minimal glucose agar with carbenicillin or gentamicin at twice the control MIC (plus kanamycin and chloramphenicol for the plasmids), 48 h. Fold change of barcode share against drug-free plates; higher = less susceptible. Active = above 20 in both replicates (the paper's putatively resistant). '<' = one read or none on drug, '>' = one read or none on a drug-free plate. Shares are relative, so most strains fall below 1 when a few take over. Listed are strains with at least 15 reads on both drug-free plates, and hits; most hits rest on fewer reference reads. Replicate rank correlation about 0.5. Edits are read from barcodes.

To fix the notation:
B1: nadB; numbered along this chain (parent)
chain: MNTLPEHSCDVLIIGSGAAGLSLALRLADQHQVIVLSKGPVTEGSTFYAQGGIAAVFDETDSIDSHVEDTLIAGAGICDRHAVEFVASNARSCVQWLIDQGVLFDTHIQPNGEESYHLTREGGHSHRRILHAADATGREVETTLVSKALNHPNIRVLERSNAVDLIVSDKIGLPGTRRVVGAWVWNRNKETVETCHAKAVVLATGGASKVYQYTTNPDISSGDGIAMAWRAGCRVANLEFNQFHPTALYHPQARNFLLTEALRGEGAYLKRPDGTRFMPDFDERGELAPRDIVARAIDHEMKRLGADCMFLDISHKPADFIRQHFPMIYEKLLGLGIDLTQEPVPIVPAAHYTCGGVMVDDHGRTDVEGLYAIGEVSYTGLHGANRMASNSLLECLVYGWSAAEDITRRMPYAHDISTLPPWDESRVENPDERVVIQHNWHELRLFMWDYVGIVRTTKRLERALRRITMLQQEIDEYYAHFRVSNNLLELRNLVQVAELIVRCAMMRKESRGLHFTLDYPELLTHSGPSILSPGNHYINR
B2: cca; numbered along this chain (parent)
chain: MKIYLVGGAVRDALLGLPVKDRDWVVVGSTPQEMLDAGYQQVGRDFPVFLHPQTHEEYALARTERKSGSGYTGFTCYAAPDVTLEDDLKRRDLTINALAQDDNGEIIDPYNGLGDLQNRLLRHVSPAFGEDPLRVLRVARFAARYAHLGFRIADETLALMREMTHAGELEHLTPERVWKETESALTTRNPQVFFQVLRDCGALRVLFPEIDALFGVPAPAKWHPEIDTGIHTLMTLSMAAMLSPQVDVRFATLCHDLGKGLTPPELWPRHHGHGPAGVKLVEQLCQRLRVPNEIRDLARLVAEFHDLIHTFPMLNPKTIVKLFDSIDAWRKPQRVEQLALTSEADVRGRTGFESADYPQGRWLREAWEVAQSVPTKAVVEAGFKGVEIREELTRRRIAAVASWKEQRCPKPE

The variants in data set [1] derive from B1. In words: barcode share on antibiotic plates over drug-free plates; higher = less susceptible. Particulars: with Escherichia coli (laboratory strain). The protocol:
(§1)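 A pool of E. coli strains, each edited to carry one amino-acid change in an essential protein, was grown for 48 h on minimal glucose agar with or without antibiotic; strain barcodes were sequenced; mean of two replicates.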

In data set [2] the parent is B2. The data set is described as above. Conditions: with Escherichia coli (laboratory strain). On the procedure: as §1
This is another data set of the same source.

[3] abbreviates: antibiotic: carbenicillin, 2× MIC (3.1 µg/mL).
Where [4] appears, read: antibiotic: gentamicin, 2× MIC (MIC 0.45 µg/mL).

Take MNTLPEHSCDVLIIGSGAAGLSLALRLADQHQVIVLSKGPVTEGSTFYAQGGIAAVFDETDSIDSHVEDTLIAGAGICDRHAVEFVASNARSCVQWLIDQGVLFDTHIQPNGEESYHLTREGGHSHRRILHAADATGREVETTLVSKALNHPNIRVLERSNAVDLIVSDKIGLPGTRRVVGAWQWNRNKETVETCHAKAVVLATGGASKVYQYTTNPDISSGDGIAMAWRAGCRVANLEFNQFHPTALYHPQARNFLLTEALRGEGAYLKRPDGTRFMPDFDERGELAPRDIVARAIDHEMKRLGADCMFLDISHKPADFIRQHFPMIYEKLLGLGIDLTQEPVPIVPAAHYTCGGVMVDDHGRTDVEGLYAIGEVSYTGLHGANRMASNSLLECLVYGWSAAEDITRRMPYAHDISTLPPWDESRVENPDERVVIQHNWHELRLFMWDYVGIVRTTKRLERALRRITMLQQEIDEYYAHFRVSNNLLELRNLVQVAELIVRCAMMRKESRGLHFTLDYPELLTHSGPSILSPGNHYINR [V184Q]: the “fold change of barcode share” value in data set [1] (setting [3]) was 0.5641 ± 0.0024; in data set [1] (setting [4]), 0.0292 ± 0.021.
Regarding MNTLPEHSCDVLIIGSGAAGLSLALRLADQHQVIVLSKGPVTEGSTFYAQGGIAAVFDETDSIDSHVEDTLIAGAGICDRHAVEFVASNARSCVQWLIDQGVLFDTHIQPNGEESYHLTREGGHSHRRILHAADATGREVETTLVSKALNHPNIRVLERSNAVDLIVSDKIGLPGTRRVVGAWVWNRNKETVETCHAKAVVLATGGASKVYQYTTNPDISSGDGIAMAWRAGCRVANLEFNQFHPTALYHPQARNFLLTEALRGEGAYLKRPDGTRFMPDFDERGELAPRDIVARAIDHEMKRLGADCMFLDISHKPADFIRQHFPMIYEKLLGLGIDLTQEPVPIVPAAHYTCGGVMVDDHGRTDVEGLYAIGEVSYTGLHGANRMASNSLLECPVYGWSAAEDITRRMPYAHDISTLPPWDESRVENPDERVVIQHNWHELRLFMWDYVGIVRTTKRLERALRRITMLQQEIDEYYAHFRVSNNLLELRNLVQVAELIVRCAMMRKESRGLHFTLDYPELLTHSGPSILSPGNHYINR [L396P], in data set [1] (setting [3]), the “fold change of barcode share” value was found to be 2.12 ± 0.1.
Take MKIYLVGGAVRDALLGLPVKDRDWVVVGSTPQEMLDAGYQQVGRDFPVFLHPQTHEEYALARTERKSGSGYTGFTCYAAPDVTLEDDLKRRDLTINALAQDDNGEIIDPYNGLGDLQNRLLRHVSPAFGEDPLRVLRVARFAARYAHLGFRIADETLALMREMTHAGELEHLTPERVWKETESALTTRNPQVFFQVLRDCGALRVLFPEIDALFGVPAPAKWHPEIDTGIHTLMTLSMAAMLSPQVDVRFATLCHDLGKGLTPPELWPRHHGHGPAGVKLVEQLCQRLRVPNEIRDLARLVAEFHDLDHTFPMLNPKTIVKLFDSIDAWRKPQRVEQLALTSEADVRGRTGFESADYPQGRWLREAWEVAQSVPTKAVVEAGFKGVEIREELTRRRIAAVASWKEQRCPKPE [I308D]: the “fold change of barcode share” value in data set [2] (setting [3]) is 0.203 ± 0.027; in data set [2] (setting [4]), less than 0.00675.
Taken in the same sequence, the figures for MKIYLVGGAVRDALLGLPVKDRDWVVVGSTPQEMLDAGYQQVGRDFPVFLHPQTHEEYALARTERKSGSGYTGFTCYAAPDVTLEDDLKRRDLTINALAQDDNGEIIDPYNGLGDLQNRLLRHVSPAFGEDPLRVLRVARFAARYAHLGFRIADETLALMREMTHAGELEHLTPERVWKETESALTTRNPQVFFQVLRDCGALRVLFPEIDALFGVPAPAKWHPEIDTGIHTLMTLSMAAMLSPQVDVRFATLCHDLGKGLTPPELWPRHHGHGPAGVKLVEQLCQRLRVPNEIRDLARLVAEFHDLPHTFPMLNPKTIVKLFDSIDAWRKPQRVEQLALTSEADVRGRTGFESADYPQGRWLREAWEVAQSVPTKAVVEAGFKGVEIREELTRRRIAAVASWKEQRCPKPE [I308P] were 0.287 ± 0.24 and less than 0.00415.
Regarding MKIYLVGGAVRDALLGLPVKDRDWVVVGSTPQEMLDAGYQQVGRDFPVFLHPQTHEEYALARTERKSGSGYTGFTCYAAPDVTLEDDLKRRDLTINALAQDDNGEIIDPYNGLGDLQNRLLRHVSPAFGEDPLRVLRVARFAARYAHLGFRIADETLALMREMTHAGELEHLTPERVWKETESALTTRNPQVFFQVLRDCGALRVLFPEIDALFGVPAPAKWHPEIDTGIHTLMTLSMAAMLSPQVDVRFATLCHDLGKGLTPPELWPRHHGHGPAGVKLVEQLCQRLRVPNEIRDLARLVAEFHDLWHTFPMLNPKTIVKLFDSIDAWRKPQRVEQLALTSEADVRGRTGFESADYPQGRWLREAWEVAQSVPTKAVVEAGFKGVEIREELTRRRIAAVASWKEQRCPKPE [I308W], the “fold change of barcode share” value in data set [2] (setting [3]) worked out at 0.304 ± 0.21; in data set [2] (setting [4]), 0.00437 ± 0.00058.
As to MKIYLVGGAVRDALLGLPVKDRDWVVVGSTPQEMLDAGYQQVGRDFPVFLHPQTHEEYALARTERKSGSGYTGFTCYAAPDVTLEDDLKRRDLTINALAQDDNGEIIDPYNGLGDLQNRLLRHVSPAFGEDPLRVLRVARFAARYAHLGFRIADETLALMREMTHAGELEHLTPERVWKETESALTTRNPQVFFQVLRDCGALRVLFPEIDALFGVPAPAKWHPEIDTGIHTLMTLSMAAMLSPQVDVRFATLCHDLGKGLTPPELWPRHHGHGPAGVKLVEQLCQRLRVPNEIRDLARLVAEFHDLQHTFPMLNPKTIVKLFDSIDAWRKPQRVEQLALTSEADVRGRTGFESADYPQGRWLREAWEVAQSVPTKAVVEAGFKGVEIREELTRRRIAAVASWKEQRCPKPE [I308Q], the “fold change of barcode share” value was 0.353 ± 0.19 in data set [2] (setting [3]) and less than 0.00551 in data set [2] (setting [4]).
The corresponding values for MKIYLVGGAVRDALLGLPVKDRDWVVVGSTPQEMLDAGYQQVGRDFPVFLHPQTHEEYALARTERKSGSGYTGFTCYAAPDVTLEDDLKRRDLTINALAQDDNGEIIDPYNGLGDLQNRLLRHVSPAFGEDPLRVLRVARFAARYAHLGFRIADETLALMREMTHAGELEHLTPERVWKETESALTTRNPQVFFQVLRDCGALRVLFPEIDALFGVPAPAKWHPEIDTGIHTLMTLSMAAMLSPQVDVRFATLCHDLGKGLTPPELWPRHHGHGPAGVKLVEQLCQRLRVPNEIRDLARLVAEFHDLAHTFPMLNPKTIVKLFDSIDAWRKPQRVEQLALTSEADVRGRTGFESADYPQGRWLREAWEVAQSVPTKAVVEAGFKGVEIREELTRRRIAAVASWKEQRCPKPE [I308A] are 0.262 ± 0.19 and less than 0.0119.
Consider MKIYLVGGAVRDALLGLPVKDRDWVVVGSTPQEMLDAGYQQVGRDFPVFLHPQTHEEYALARTERKSGSGYTGFTCYAAPDVTLEDDLKRRDLTINALAQDDNGEIIDPYNGLGDLQNRLLRHVSPAFGEDPLRVLRVARFAARYAHLGFRIADETLALMREMTHAGELEHLTPERVWKETESALTTRNPQVFFQVLRDCGALRVLFPEIDALFGVPAPAKWHPEIDTGIHTLWTLSMAAMLSPQVDVRFATLCHDLGKGLTPPELWPRHHGHGPAGVKLVEQLCQRLRVPNEIRDLARLVAEFHDLIHTFPMLNPKTIVKLFDSIDAWRKPQRVEQLALTSEADVRGRTGFESADYPQGRWLREAWEVAQSVPTKAVVEAGFKGVEIREELTRRRIAAVASWKEQRCPKPE [M234W], for which the “fold change of barcode share” value in data set [2] (setting [3]) worked out at 0.344 ± 0.016; in data set [2] (setting [4]) it was 0.00917 ± 0.0087.
